Test results reported in paper PMC6499814.
No constants are given. Whether binding was seen depends on the method and setting. In cells and extracts the contact can be indirect. Some results given as binding are weak or reduced against the parent protein; the word gives no strength. For part of these data: Where a sequence is shown, tags or fusion partners need not be part of it.

Sequences of proteins named here, by UniProt entry; tags and fusion partners are left off. Residues count along the entry.
UniProt P56962: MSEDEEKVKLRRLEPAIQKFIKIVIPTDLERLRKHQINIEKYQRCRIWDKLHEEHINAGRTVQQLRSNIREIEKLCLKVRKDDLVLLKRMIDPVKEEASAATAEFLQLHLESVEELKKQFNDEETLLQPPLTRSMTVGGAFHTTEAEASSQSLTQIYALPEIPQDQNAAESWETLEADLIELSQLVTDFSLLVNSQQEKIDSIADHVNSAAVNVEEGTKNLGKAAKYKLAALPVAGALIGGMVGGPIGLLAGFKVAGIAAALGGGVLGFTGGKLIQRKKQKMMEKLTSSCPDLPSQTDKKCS
UniProt O60313, residues 88-960: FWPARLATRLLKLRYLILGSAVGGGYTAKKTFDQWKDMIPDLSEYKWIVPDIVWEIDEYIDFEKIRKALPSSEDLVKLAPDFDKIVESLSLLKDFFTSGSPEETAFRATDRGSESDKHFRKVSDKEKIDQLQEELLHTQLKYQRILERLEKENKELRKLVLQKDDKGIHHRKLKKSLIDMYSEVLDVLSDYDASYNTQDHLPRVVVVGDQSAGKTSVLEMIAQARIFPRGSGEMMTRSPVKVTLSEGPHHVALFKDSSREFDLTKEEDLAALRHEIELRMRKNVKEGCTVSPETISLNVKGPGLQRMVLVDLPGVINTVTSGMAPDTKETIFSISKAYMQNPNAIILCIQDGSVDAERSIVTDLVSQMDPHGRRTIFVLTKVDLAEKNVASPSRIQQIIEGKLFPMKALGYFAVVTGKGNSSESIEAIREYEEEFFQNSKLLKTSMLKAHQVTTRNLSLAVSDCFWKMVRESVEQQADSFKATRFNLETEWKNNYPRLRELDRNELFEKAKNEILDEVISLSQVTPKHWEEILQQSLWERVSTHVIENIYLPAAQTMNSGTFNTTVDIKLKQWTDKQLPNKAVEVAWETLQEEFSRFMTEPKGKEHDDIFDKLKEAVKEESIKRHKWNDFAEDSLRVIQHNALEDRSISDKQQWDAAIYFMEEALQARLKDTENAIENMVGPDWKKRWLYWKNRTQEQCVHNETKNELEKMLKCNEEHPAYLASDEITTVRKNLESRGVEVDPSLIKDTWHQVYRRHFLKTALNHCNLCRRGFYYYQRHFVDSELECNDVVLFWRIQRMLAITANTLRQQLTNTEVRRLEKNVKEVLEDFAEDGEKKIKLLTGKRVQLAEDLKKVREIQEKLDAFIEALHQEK
UniProt Q9Y3D6: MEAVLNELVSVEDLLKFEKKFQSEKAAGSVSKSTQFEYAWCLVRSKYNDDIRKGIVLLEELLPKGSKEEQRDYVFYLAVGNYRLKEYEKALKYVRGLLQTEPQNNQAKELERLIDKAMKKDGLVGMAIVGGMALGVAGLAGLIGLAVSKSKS
UniProt Q6ZNE5: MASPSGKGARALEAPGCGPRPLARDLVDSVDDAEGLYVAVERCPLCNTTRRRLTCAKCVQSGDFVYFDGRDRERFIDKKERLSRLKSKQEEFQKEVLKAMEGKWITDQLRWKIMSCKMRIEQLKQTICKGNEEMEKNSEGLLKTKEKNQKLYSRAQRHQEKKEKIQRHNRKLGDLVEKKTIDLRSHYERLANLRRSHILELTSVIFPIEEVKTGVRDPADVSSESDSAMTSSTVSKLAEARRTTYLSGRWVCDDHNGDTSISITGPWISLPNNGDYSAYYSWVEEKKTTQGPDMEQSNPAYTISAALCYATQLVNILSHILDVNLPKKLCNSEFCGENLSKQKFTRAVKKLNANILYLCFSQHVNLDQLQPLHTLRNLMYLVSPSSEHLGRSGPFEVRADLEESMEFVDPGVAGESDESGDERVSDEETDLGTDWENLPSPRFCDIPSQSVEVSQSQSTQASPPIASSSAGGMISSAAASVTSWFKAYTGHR

Legend:
[1] = target: Flag-tagged STX17 (syntaxin 17) (UniProt P56962); assay: co-IP; Wild-type or Fis1 KO HeLa cells transfected with Flag-STX17 (or its mutants) and the indicated plasmids for 24 h; IP with anti-Flag beads and immunoblotting; also in cells cultured in glucose or galactose medium for 18 h
[2] = target: Flag-tagged OPA1 (UniProt O60313); assay: co-IP; HEK293T cells co-transfected with Myc-tagged STX17 (or truncations) and Flag-tagged plasmids for 24 h; IP with anti-Flag, blots with anti-Myc and anti-Flag; NP-40 lysis buffer, FLAG M2 beads, 4 °C, 3 h
[3] = target: Flag-tagged Fis1 (mitochondrial fission 1 protein) (UniProt Q9Y3D6); assay: as above
[4] = target: T1, Flag-tagged Mff (mitochondrial fission factor) (UniProt Q9GZY8); assay: as above
T1 sequence: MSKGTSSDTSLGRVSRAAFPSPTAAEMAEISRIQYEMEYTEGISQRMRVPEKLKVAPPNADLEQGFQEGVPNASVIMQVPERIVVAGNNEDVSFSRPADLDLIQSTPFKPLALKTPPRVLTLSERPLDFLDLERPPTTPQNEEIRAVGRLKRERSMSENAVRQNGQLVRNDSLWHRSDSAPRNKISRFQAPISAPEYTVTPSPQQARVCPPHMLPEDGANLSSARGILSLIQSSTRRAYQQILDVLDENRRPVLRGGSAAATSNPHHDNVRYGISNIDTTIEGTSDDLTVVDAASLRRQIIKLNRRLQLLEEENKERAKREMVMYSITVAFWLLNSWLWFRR

[5] = target: T2, Flag-tagged Mfn1 (UniProt Q8IWA4); assay: as above
T2 sequence: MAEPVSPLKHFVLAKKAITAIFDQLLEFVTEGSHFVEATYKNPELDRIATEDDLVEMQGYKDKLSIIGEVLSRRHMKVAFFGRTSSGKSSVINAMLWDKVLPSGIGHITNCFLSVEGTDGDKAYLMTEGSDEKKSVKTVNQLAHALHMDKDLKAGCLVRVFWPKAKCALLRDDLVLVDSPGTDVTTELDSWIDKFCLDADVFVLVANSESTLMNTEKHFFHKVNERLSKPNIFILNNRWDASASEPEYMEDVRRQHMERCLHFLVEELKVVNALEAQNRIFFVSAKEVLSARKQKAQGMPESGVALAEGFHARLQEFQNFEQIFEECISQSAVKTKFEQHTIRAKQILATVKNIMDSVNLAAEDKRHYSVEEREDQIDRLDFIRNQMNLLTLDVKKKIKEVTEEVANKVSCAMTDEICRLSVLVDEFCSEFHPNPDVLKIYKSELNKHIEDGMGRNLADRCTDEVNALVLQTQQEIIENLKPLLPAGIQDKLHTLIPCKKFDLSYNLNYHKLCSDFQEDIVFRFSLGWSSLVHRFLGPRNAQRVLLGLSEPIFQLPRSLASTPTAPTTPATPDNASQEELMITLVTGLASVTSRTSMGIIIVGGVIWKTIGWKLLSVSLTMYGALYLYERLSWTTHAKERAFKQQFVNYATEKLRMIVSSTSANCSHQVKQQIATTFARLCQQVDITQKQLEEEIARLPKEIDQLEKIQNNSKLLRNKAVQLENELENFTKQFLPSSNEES

[6] = target: Flag-tagged Fis1 (mitochondrial fission 1 protein) (UniProt Q9Y3D6); assay: co-IP; HeLa cells transfected with Flag vector or Flag-Fis1; anti-Flag immunoprecipitates blotted for endogenous STX17 and Flag; NP-40 lysis buffer (50 mM Tris-HCl pH 7.4, 150 mM NaCl), FLAG M2 beads, 4 °C, 3 h

With ATG14 (from UniProt Q6ZNE5 1-492) the binding [1] was “binds”.
In the case of “Myc-tagged STX17 (syntaxin 17) (from UniProt P56962 1-302)”, the binding [2] is reported as “no binding”, the binding [3] is reported as “binds” and the binding [4] is reported as “no binding”. The binding [5] was “no binding”.
“Syntaxin 17 (STX17), endogenous (from UniProt P56962 1-302)” was tested, and the binding [6] was “binds”.
